{
  "source": "the supplement of paper PMC8728848",
  "binders": {"B1": {"name": "CPA (Cicer arietinum) (protein)", "chain": "MAFSYLNLVLVTLTTLFFLQTTKVKSQKSVSFHITNFTISRPSITLQGTAEFLPNVLLLNDIEHPVFVVGRALYSKPITLWNNKTGKVASFVTSFTFDVQDLKKTVPGHGLVFFLAPSGSEIPFSSDGGNLGVVDGKNAFNRFVGVEFDNFVNSWDPKYSHVGINVNSLISTKTVKWNRVSGELVKVSIVYDSVSTTLTVIVTYKNGQISILSQLVDLKAVLPDTVNIGFSASTTLVSPRQLHNIHSWSFTSTFET"}},
  "experiment_in_all_cases": "glycan array binding signal (z-score within array); higher = stronger binding",
  "settings_in_all_cases": "glycan notation: IUPAC condensed, linker removed",
  "key": {"[1]": {"biological_target": "Neu5Ac(a2-3)Gal(b1-4)GlcNAc(b1-3)Gal(b1-4)GlcNAc(b1-3)Gal(b1-4)GlcNAc(b1-2)Man(a1-3)[Neu5Ac(a2-3)Gal(b1-4)GlcNAc(b1-3)Gal(b1-4)GlcNAc(b1-3)Gal(b1-4)GlcNAc(b1-2)Man(a1-6)]GalNAc", "method_in_brief": "(§1)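 Columns mapping to the same glycan were averaged after glycan names were converted to IUPAC-condensed notation. The data come from 3228 arrays in the Consortium for Functional Glycomics database, limited to those with an available protein sequence. Binding is reported as a within-array Z-score averaged across arrays of one protein sequence and across linkers.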"}, "[2]": {"biological_target": "Neu5Ac(a2-3)Gal(b1-4)GlcNAc(b1-3)Gal(b1-4)GlcNAc(b1-3)GalNAc", "method_in_brief": "as §1"}, "[3]": {"biological_target": "Neu5Ac(a2-3)Gal(b1-4)GlcNAc(b1-3)Gal(b1-4)GlcNAc(b1-3)[Neu5Ac(a2-3)Gal(b1-4)GlcNAc(b1-3)Gal(b1-4)GlcNAc(b1-6)]GalNAc", "method_in_brief": "as §1"}, "[4]": {"biological_target": "Neu5Ac(a2-3)Gal(b1-4)GlcNAc(b1-3)Gal(b1-4)GlcNAc(b1-6)[Gal(b1-3)]GalNAc", "method_in_brief": "as §1"}, "[5]": {"biological_target": "Neu5Ac(a2-3)Gal(b1-4)GlcNAc(b1-3)Gal(b1-4)[Fuc(a1-3)]GlcNAc", "method_in_brief": "as §1"}, "[6]": {"biological_target": "Neu5Ac(a2-3)Gal(b1-4)GlcNAc(b1-3)GalNAc", "method_in_brief": "as §1"}, "[7]": {"biological_target": "Neu5Ac(a2-3)Gal(b1-4)GlcNAc(b1-3)[Neu5Ac(a2-3)Gal(b1-4)GlcNAc(b1-6)]GalNAc", "method_in_brief": "as §1"}, "[8]": {"biological_target": "Neu5Ac(a2-3)Gal(b1-4)GlcNAc(b1-6)GalNAc", "method_in_brief": "as §1"}, "[9]": {"biological_target": "Neu5Ac(a2-3)Gal(b1-4)GlcNAc(b1-6)[Gal(b1-3)]GalNAc", "method_in_brief": "as §1"}, "[10]": {"biological_target": "Neu5Ac(a2-3)Gal(b1-4)GlcNAc(b1-6)[Neu5Ac(a2-3)Gal(b1-3)]GalNAc", "method_in_brief": "as §1"}, "[11]": {"biological_target": "Neu5Ac(a2-3)Gal(b1-4)GlcNAc6S", "method_in_brief": "as §1"}, "[12]": {"biological_target": "Neu5Ac(a2-3)Gal(b1-4)[Fuc(a1-3)]GlcNAc", "method_in_brief": "as §1"}, "[13]": {"biological_target": "Neu5Ac(a2-3)Gal(b1-4)[Fuc(a1-3)]GlcNAc(b1-2)Man", "method_in_brief": "as §1"}, "[14]": {"biological_target": "Neu5Ac(a2-3)Gal(b1-4)[Fuc(a1-3)]GlcNAc(b1-3)Gal", "method_in_brief": "as §1"}, "[15]": {"biological_target": "Neu5Ac(a2-3)Gal(b1-4)[Fuc(a1-3)]GlcNAc(b1-3)Gal(b1-4)GlcNAc", "method_in_brief": "as §1"}, "[16]": {"biological_target": "Neu5Ac(a2-3)Gal(b1-4)[Fuc(a1-3)]GlcNAc(b1-3)Gal(b1-4)[Fuc(a1-3)]GlcNAc(b1-3)Gal(b1-4)[Fuc(a1-3)]GlcNAc", "method_in_brief": "as §1"}, "[17]": {"biological_target": "Neu5Ac(a2-3)Gal(b1-4)[Fuc(a1-3)]GlcNAc(b1-3)GalNAc", "method_in_brief": "as §1"}, "[18]": {"biological_target": "Neu5Ac(a2-3)Gal(b1-4)[Fuc(a1-3)]GlcNAc(b1-6)[Gal(b1-3)]GalNAc", "method_in_brief": "as §1"}, "[19]": {"biological_target": "Neu5Ac(a2-3)Gal(b1-4)[Fuc(a1-3)]GlcNAc(b1-6)[Neu5Ac(a2-3)Gal(b1-3)]GalNAc", "method_in_brief": "as §1"}, "[20]": {"biological_target": "Neu5Ac(a2-3)Gal(b1-4)[Fuc(a1-3)]GlcNAc6S", "method_in_brief": "as §1"}, "[21]": {"biological_target": "Neu5Ac(a2-3)Gal6S(b1-4)GlcNAc", "method_in_brief": "as §1"}, "[22]": {"biological_target": "Neu5Ac(a2-3)Gal6S(b1-4)[Fuc(a1-3)]GlcNAc", "method_in_brief": "as §1"}, "Neu5Ac(a2-3)GalNAc": {"biological_target": "Neu5Ac(a2-3)GalNAc", "method_in_brief": "as §1"}, "[23]": {"biological_target": "Neu5Ac(a2-3)GalNAc(b1-4)GlcNAc", "method_in_brief": "as §1"}, "[24]": {"biological_target": "Neu5Ac(a2-3)[GalNAc(b1-4)]Gal(b1-4)Glc", "method_in_brief": "as §1"}, "[25]": {"biological_target": "Neu5Ac(a2-3)[GalNAc(b1-4)]Gal(b1-4)GlcNAc", "method_in_brief": "as §1"}, "[26]": {"biological_target": "Neu5Ac(a2-3)[GalNAc(b1-4)]Gal(b1-4)GlcNAc(b1-3)GalNAc", "method_in_brief": "as §1"}, "[27]": {"biological_target": "Neu5Ac(a2-3)[Neu5Ac(a2-6)]GalNAc", "method_in_brief": "as §1"}, "Neu5Ac(a2-6)Gal": {"biological_target": "Neu5Ac(a2-6)Gal", "method_in_brief": "as §1"}, "[28]": {"biological_target": "Neu5Ac(a2-6)Gal(b1-3)GlcNAc(b1-3)[Gal(b1-4)GlcNAc(b1-6)]Gal(b1-4)Glc", "method_in_brief": "as §1"}, "Neu5Ac(a2-6)Gal(b1-4)Glc": {"biological_target": "Neu5Ac(a2-6)Gal(b1-4)Glc", "method_in_brief": "as §1"}, "[29]": {"biological_target": "Neu5Ac(a2-6)Gal(b1-4)GlcNAc", "method_in_brief": "as §1"}, "[30]": {"biological_target": "Neu5Ac(a2-6)Gal(b1-4)GlcNAc(b1-2)Man", "method_in_brief": "as §1"}, "[31]": {"biological_target": "Neu5Ac(a2-6)Gal(b1-4)GlcNAc(b1-2)Man(a1-3)Man(b1-4)GlcNAc(b1-4)GlcNAc", "method_in_brief": "as §1"}, "[32]": {"biological_target": "Neu5Ac(a2-6)Gal(b1-4)GlcNAc(b1-2)Man(a1-3)[Gal(b1-4)GlcNAc(b1-2)Man(a1-6)]Man(b1-4)GlcNAc(b1-4)GlcNAc", "method_in_brief": "as §1"}, "[33]": {"biological_target": "Neu5Ac(a2-6)Gal(b1-4)GlcNAc(b1-2)Man(a1-3)[GlcNAc(b1-2)Man(a1-6)]Man(b1-4)GlcNAc(b1-4)GlcNAc", "method_in_brief": "as §1"}, "[34]": {"biological_target": "Neu5Ac(a2-6)Gal(b1-4)GlcNAc(b1-2)Man(a1-3)[GlcNAc(b1-4)][Neu5Ac(a2-6)Gal(b1-4)GlcNAc(b1-2)Man(a1-6)]Man(b1-4)GlcNAc(b1-4)GlcNAc", "method_in_brief": "as §1"}, "[35]": {"biological_target": "Neu5Ac(a2-6)Gal(b1-4)GlcNAc(b1-2)Man(a1-3)[Man(a1-6)]Man(b1-4)GlcNAc(b1-4)GlcNAc", "method_in_brief": "as §1"}},
  "note": "The list shows a part of the results.",
  "data": [
    {"binder": "B1", "values": [
      {"measurement": "glycan array binding signal (z-score)", "setting": "[1]", "value": 6.81},
      {"measurement": "glycan array binding signal (z-score)", "setting": "[2]", "value": -0.304},
      {"measurement": "glycan array binding signal (z-score)", "setting": "[3]", "value": 1.54},
      {"measurement": "glycan array binding signal (z-score)", "setting": "[4]", "value": -0.027},
      {"measurement": "glycan array binding signal (z-score)", "setting": "[5]", "value": -0.515},
      {"measurement": "glycan array binding signal (z-score)", "setting": "[6]", "value": -0.22},
      {"measurement": "glycan array binding signal (z-score)", "setting": "[7]", "value": -0.354},
      {"measurement": "glycan array binding signal (z-score)", "setting": "[8]", "value": 0.427},
      {"measurement": "glycan array binding signal (z-score)", "setting": "[9]", "value": -0.566},
      {"measurement": "glycan array binding signal (z-score)", "setting": "[10]", "value": -0.626},
      {"measurement": "glycan array binding signal (z-score)", "setting": "[11]", "value": -0.638},
      {"measurement": "glycan array binding signal (z-score)", "setting": "[12]", "value": -0.538},
      {"measurement": "glycan array binding signal (z-score)", "setting": "[13]", "value": -0.288},
      {"measurement": "glycan array binding signal (z-score)", "setting": "[14]", "value": -0.743},
      {"measurement": "glycan array binding signal (z-score)", "setting": "[15]", "value": -0.418},
      {"measurement": "glycan array binding signal (z-score)", "setting": "[16]", "value": -0.281},
      {"measurement": "glycan array binding signal (z-score)", "setting": "[17]", "value": -0.322},
      {"measurement": "glycan array binding signal (z-score)", "setting": "[18]", "value": -0.005},
      {"measurement": "glycan array binding signal (z-score)", "setting": "[19]", "value": -0.204},
      {"measurement": "glycan array binding signal (z-score)", "setting": "[20]", "value": -0.752},
      {"measurement": "glycan array binding signal (z-score)", "setting": "[21]", "value": -0.562},
      {"measurement": "glycan array binding signal (z-score)", "setting": "[22]", "value": -0.684},
      {"measurement": "glycan array binding signal (z-score)", "setting": "Neu5Ac(a2-3)GalNAc", "value": -0.53},
      {"measurement": "glycan array binding signal (z-score)", "setting": "[23]", "value": -0.537},
      {"measurement": "glycan array binding signal (z-score)", "setting": "[24]", "value": -0.34},
      {"measurement": "glycan array binding signal (z-score)", "setting": "[25]", "value": -0.301},
      {"measurement": "glycan array binding signal (z-score)", "setting": "[26]", "value": 2.36},
      {"measurement": "glycan array binding signal (z-score)", "setting": "[27]", "value": -0.304},
      {"measurement": "glycan array binding signal (z-score)", "setting": "Neu5Ac(a2-6)Gal", "value": -0.276},
      {"measurement": "glycan array binding signal (z-score)", "setting": "[28]", "value": 0.131},
      {"measurement": "glycan array binding signal (z-score)", "setting": "Neu5Ac(a2-6)Gal(b1-4)Glc", "value": -0.327},
      {"measurement": "glycan array binding signal (z-score)", "setting": "[29]", "value": -0.477},
      {"measurement": "glycan array binding signal (z-score)", "setting": "[30]", "value": -0.555},
      {"measurement": "glycan array binding signal (z-score)", "setting": "[31]", "value": 0.138},
      {"measurement": "glycan array binding signal (z-score)", "setting": "[32]", "value": -0.192},
      {"measurement": "glycan array binding signal (z-score)", "setting": "[33]", "value": -0.478},
      {"measurement": "glycan array binding signal (z-score)", "setting": "[34]", "value": -0.417},
      {"measurement": "glycan array binding signal (z-score)", "setting": "[35]", "value": -0.546}
    ]}
  ]
}
